From PubChem BioAssay AID1468 (National Center for Advancing Translational Sciences (NCATS), 2008)
In all, about 280,000 compounds went through this assay and about 1,100 (0.39%) were called active. Inconclusive means that the source gave no clear call. Such entries were picked first, then a sample of the others. Calls come from the whole dose curve; as a rule, active = well fitted inhibition curve with a large enough effect; inconclusive = small, poorly fitted or top-dose-only effect, or effect the other way; inactive = flat fitted curve, though single readings scatter. No potency is given beside an inconclusive call; the fits are too rough.

What follows are molecules tested against Microtubule-associated protein tau (Homo sapiens) (UniProt P10636) (assay: qHTS for Inhibitors of Tau Fibril Formation, Fluorescence Polarization). Settings: K18 P301L tau heparin fibrillization, Alexa594 FP, 6 h; series mostly up to 57.7 µM.
Chain of UniProt P10636 (P10636 whole entry, looked up): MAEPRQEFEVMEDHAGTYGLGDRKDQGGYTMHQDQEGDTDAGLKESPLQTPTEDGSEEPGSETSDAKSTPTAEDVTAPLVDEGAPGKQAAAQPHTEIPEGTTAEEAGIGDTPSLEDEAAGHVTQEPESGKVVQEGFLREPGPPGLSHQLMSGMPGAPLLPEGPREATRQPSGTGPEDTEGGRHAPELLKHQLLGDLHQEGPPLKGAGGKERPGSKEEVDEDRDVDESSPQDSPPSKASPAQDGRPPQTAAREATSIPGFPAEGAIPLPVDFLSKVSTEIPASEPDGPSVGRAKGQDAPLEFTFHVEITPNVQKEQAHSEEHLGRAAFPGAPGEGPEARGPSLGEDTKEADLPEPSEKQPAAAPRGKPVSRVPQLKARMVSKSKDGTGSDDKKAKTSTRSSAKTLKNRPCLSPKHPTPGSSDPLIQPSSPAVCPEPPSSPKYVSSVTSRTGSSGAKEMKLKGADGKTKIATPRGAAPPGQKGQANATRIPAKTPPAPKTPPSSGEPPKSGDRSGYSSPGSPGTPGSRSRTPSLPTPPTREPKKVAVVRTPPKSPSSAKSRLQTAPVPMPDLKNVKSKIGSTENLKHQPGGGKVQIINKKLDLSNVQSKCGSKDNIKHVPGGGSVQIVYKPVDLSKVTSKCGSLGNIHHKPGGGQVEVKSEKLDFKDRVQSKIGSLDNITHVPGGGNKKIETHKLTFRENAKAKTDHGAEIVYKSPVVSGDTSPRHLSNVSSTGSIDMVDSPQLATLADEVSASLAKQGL
How it was run: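 Recombinant K18 P301L […], labeled with Alexa 594 at 0.24 uM over 15 uM unlabeled; heparin inducer 20 uM final; 37 C, 6 hr; FP endpoint.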
Note: nearly all actives have a fitted effect of over 55% in size.
Potency is the fitted concentration of half-maximal effect; tags give direction and shape of the fitted curve.

Row | Compound | Potency
1 | CN1CCN/C1=C(/C(Cl)=C(Cl)Cl)[N+](=O)[O-] | inconclusive [inhibitor, single point]
2 | CN(C)C(=O)c1ccc(-c2nc(Nc3ccc(F)cc3)c3ccccc3n2)cc1 | inconclusive [inhibitor, partial curve]
3 | N#Cc1ccsc1NC(=O)CN1CCCCC1 | inconclusive [inhibitor, single point]
4 | CCC(Cn1nnc2ccccc2c1=O)NC(=O)Nc1cccc(C)c1C (centres undefined) | inactive
5 | CC(=O)c1cccc(NC(=O)/C=C/c2ccc([N+](=O)[O-])s2)c1 | inconclusive [inhibitor, partial curve]
6 | CCOC(=O)c1c(NC(=O)CSc2c[nH]c3ccccc23)sc2c1CCC2 | inconclusive [inhibitor, partial curve, poor fit]
7 | O=C(CNc1cccc2ccccc12)N/N=C/c1cccc(Oc2ccccc2)c1 | inconclusive [activator, full curve, poor fit]
8 | COc1ccc(N=Nc2ccc(O)c(P(=O)(c3ccccc3)c3ccccc3)c2)cc1 | inconclusive [inhibitor, single point]
9 | CC(C)CN(C(=O)c1cccc(S(=O)(=O)N2CCCCC2)c1)C1CCS(=O)(=O)C1 (centres undefined) | inconclusive [inhibitor, single point]
10 | Cc1c(-c2nc(-c3ccc4c(c3)OCO4)no2)nnn1-c1ccc(Br)cc1F | inconclusive [inhibitor, partial curve]
11 | Cc1ccccc1NC(=O)Cn1c(SCC(=O)Nc2ccc(F)cc2)nc2ccccc21 | inconclusive [inhibitor, single point]
12 | CCOC(=O)c1ccc(NC(=O)Cn2c(=O)n(-c3ccc(C)cc3)c(=O)c3c2cnn3C)cc1 | inconclusive [inhibitor, partial curve]
13 | O=C(c1ccccc1)c1cccc(NC(=O)c2ccc(Br)o2)c1 | inconclusive [inhibitor, single point]
14 | S=C(NC1CCCCC1)N1CCOCCOCCN(C(=S)NC2CCCCC2)CCOCC1 | inconclusive [activator, partial curve]
15 | COc1ccc(N=C2S/C(=C\c3ccc(OCC(=O)O)cc3)C(=O)N2CCc2c[nH]c3ccccc23)cc1 | inconclusive [inhibitor, single point]
16 | CCOC(=O)c1c(NC(=O)c2nc(SCC)ncc2Cl)sc(C(C)=O)c1C | inactive
17 | CCOC(=O)c1ccc(N2CCN(c3cccc(OC)c3)CC2)c(NC(=O)Nc2ccc(OCC)cc2)c1 | inconclusive [activator, single point]
18 | O=C(CCC(NC(=O)OCc1ccccc1)C(=O)OCc1ccccc1)NCC(=O)OCc1ccccc1 (centres undefined) | inactive
19 | Cc1ccccc1OCCNC(=O)c1ccc2ccccc2n1 | inactive
20 | COc1ccccc1N1C(=O)N(C(C)=O)C2C1Nc1ccccc1N2C (centres undefined) | inconclusive [inhibitor, single point]
21 | CC1C/C=C/C=C/C=C/C=C/C(O[C@@H]2O[C@H](C)[C@@H](O)[C@H](N)[C@@H]2O)CC2OC(O)(CC(O)CC3OC3/C=C/C(=O)O1)CC(O)C2C(=O)O (some centres undefined) | inconclusive [inhibitor, partial curve, poor fit]
22 | Cc1c2ccccc2nc2c(F)c(NCCO)c(F)c(F)c12 | inconclusive [inhibitor, full curve, poor fit]
23 | O/N=C/c1cc(Br)cc(Br)c1OCc1ccccc1 | inconclusive [inhibitor, partial curve, poor fit]

Row | Compound | Potency
24 | O=C(C1CCCN(c2ncccn2)C1)N1CCc2ccccc21 (centres undefined) | inconclusive [activator, partial curve]
25 | COc1cccc(/C=N/Nc2ccc(C(=O)O)cc2)c1O | inactive
26 | CCc1cccc(NC(=O)Cn2c(=O)n(CC(=O)NCCc3ccccc3)c(=O)c3ccccc32)c1 | inactive
27 | COc1cccc(-c2cc(C(=O)Nc3cccc(O)c3)no2)c1 | inconclusive [inhibitor, single point]
28 | O=C(N/N=C/c1cc2c3c(c1O)CCCN3CCC2)c1ccccc1O | inactive
29 | COc1cc(OC)cc(-c2nc(-c3ccccc3)no2)c1 | inconclusive [inhibitor, partial curve, poor fit]
30 | O=C(CNC(=S)N(Cc1ccccc1)Cc1cccs1)NCc1ccc(F)cc1 | inconclusive [inhibitor, single point]
31 | COc1ccc(-c2cnnn2-c2ccc(NC(=O)/C=C/c3ccc(OC)c(OC)c3)cc2)cc1 | inconclusive [inhibitor, partial curve]
32 | COc1ccc(NC(=O)Cn2c(SCc3ccc(F)cc3)nc3cccnc32)cc1OC | inconclusive [activator, single point]
33 | COc1cccc(CNC(=O)c2oc3c(c2C)-c2nn(Cc4cccc(Cl)c4)cc2CC3)c1OC | inactive
34 | COc1ccc(C2c3sc(=O)[nH]c3SC3C4CCC(C4)C23)cc1OC (centres undefined) | inactive
35 | Cc1ccc(NC(=O)CCN2CCN(CCO)CC2)cc1C | inactive
36 | CC(C)CCNC(=O)Nc1ccc2c(c1)N(Cc1ccccc1)C(=O)c1ccccc1S2 | active: 14.1 µM
37 | Cc1ccc(C(=O)Nc2sc(C)c(C)c2C(=O)c2ccccc2)cc1 | inactive
38 | CC(=O)c1ccc(NC(=O)Cn2c(-n3nc(C)cc3C)nc(C)c(C)c2=O)cc1 | inconclusive [inhibitor, single point]
39 | CCNC(=S)Nc1cccc(S(=O)(=O)Nc2ccccc2OC)c1 | inconclusive [inhibitor, partial curve]
40 | Cc1cc(C)cc(NC(=S)NCc2cccn2C)c1 | inconclusive [activator, single point]
41 | O=C(OC1CCOC1=O)c1cc(-c2ccccc2)nc2ccccc12 (centres undefined) | inconclusive [inhibitor, single point]
42 | C=CCN(CC=C)Cc1c(C)[nH]c2ccc(C(=O)OCC)cc2c1=O | inactive
43 | Nc1nnc(N)c2ccccc12 | inactive
44 | O=C(NCc1ccc(F)cc1)c1ccc(Nc2nc3ccccc3n3nnnc23)cc1 | inconclusive [inhibitor, partial curve, poor fit]
45 | COc1cccc(N(CC(=O)Nc2ccc3c(c2)OCO3)S(=O)(=O)c2ccccc2)c1 | inconclusive [activator, full curve, poor fit]
46 | CCOC(=O)CN1C(=O)N[C@@H](c2ccc(Br)cc2)C(C(C)=O)=C1C | inconclusive [activator, single point]

Row | Compound | Potency
47 | Cc1ccn2c(NC(=O)c3ccccc3)c(-c3cccs3)nc2c1 | inactive
48 | Oc1ccc(N=Cc2sc3ccccc3c2Cl)cc1 | inconclusive [inhibitor, partial curve]
49 | CC(=O)NC(Cc1ccc(F)cc1)C(=O)NC1CCN(c2nnnn2-c2ccccc2)CC1 (centres undefined) | inactive
50 | CCCCN1C(=O)C(CC(=O)NCC)SC1=Nc1ccccc1 (centres undefined) | inconclusive [inhibitor, single point]
51 | CC(=O)c1ccc(NC(=O)c2ccc(COc3ccccc3[N+](=O)[O-])o2)cc1 | inconclusive [inhibitor, partial curve, poor fit]
52 | CN1CCN(S(=O)(=O)c2ccc(NC(=O)c3ccc(Br)s3)cc2)CC1 | inconclusive [inhibitor, single point]
53 | O=C(CCCCCNC(=O)c1ccccc1)N=Nc1c(O)[nH]c2c(Br)cc(Br)cc12 | inactive
54 | O=S(=O)(c1ccc2nc(NCc3ccccc3Cl)ccc2c1)N1CCCCC1 | inconclusive [inhibitor, partial curve]
55 | O=C(Nc1nc2ccccc2s1)c1ccc(S(=O)(=O)N2CCCC2)cc1 | inconclusive [inhibitor, partial curve, poor fit]
56 | S=C(NCCc1ccc(Cl)cc1)NCc1ccco1 | inactive
57 | CCC(=O)NNC(=S)NC(=O)c1ccc(C)cc1 | inactive
58 | O=C(Oc1cccnc1)c1cc(S(=O)(=O)N2CCCCC2)ccc1Cl | inconclusive [activator, partial curve]
59 | CC(O)CN1C(=O)C(CC(=O)Nc2ccc(Cl)cc2)SC1=Nc1ccccc1 (centres undefined) | inconclusive [inhibitor, partial curve]
60 | CCc1ccc(OCc2nc(-c3ccc(OC)cc3)no2)c(Br)c1 | inactive
61 | O=C(Cn1cnc2c(oc3ccccc32)c1=O)Nc1ccc(F)cc1F | inconclusive [activator, single point]
62 | O=C(c1cccc2ccccc12)C1CCCN(C(=O)CCCn2cncn2)C1 (centres undefined) | inactive
63 | COc1ccc(C(=O)c2coc(-c3ccccc3C(=O)O)c2C(=O)O)cc1 | inactive
64 | O=C(Nc1cc(C(F)(F)F)ccc1Cl)C(Sc1ccccn1)c1ccccc1 (centres undefined) | inconclusive [inhibitor, partial curve]
65 | CC(Sc1nnc2ccccn12)C(=O)Nc1ncc(Cl)cc1Cl (centres undefined) | inconclusive [inhibitor, full curve, poor fit]
66 | Cc1[nH]c2ccccc2c1C(=O)CSC(=S)N(C)C1CCCCC1 | active: 25.1 µM
67 | CCC(C)(C)C(=O)Nc1cc([N+](=O)[O-])ccc1Cl | inactive
68 | CC(=O)c1ccc(NC(=S)NC(C)c2ccc(Cl)cc2Cl)cc1 (centres undefined) | active: 31.6 µM
69 | COc1ccc(-c2nc(CSCC(=O)N3CCN(c4cccc(C)c4C)CC3)c(C)o2)cc1OC | inactive
